Assay results taken from the supplement of paper PMC12217912.
The list shows a part of the results. Sequences were assembled here from the parent chain. Values near 0.05 are background.

B1: TEV protease; numbered along this chain (parent)
chain: MGESLFKGPRDYNPISSSICHLTNESDGHTTSLYGIGFGPFIITNKHLFRRNNGTLVVQSLHGVFKVKDTTTLQQHLVDGRDMIIIRMPKDFPPFPQKLKFREPQREERICLVTTNFQTKSMSSMVSDTSCTFPSGDGIFWKHWIQTKDGQCGSPLVSTRDGFIVGIHSASNFTNTNNYFTSVPKNFMELLTNQEAQQWVSGWRLNADSVLWGGHKVFMVKPEEPFQPVKEATQL

Variants of: B1
Experiment: raw area under fraction-flipped curve 0-4 h after induction (AUC4h, not background-subtracted), DNA-recorder readout of cleavage of the substrate (dimensionless); higher = more cleavage of the substrate by the protease variant
Settings: temperature: 34 °C; time window: 0-4 h after rhamnose induction
Experimental: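 In vivo DNA recorder in E. coli TOP10(DE3) ΔrhaA at 34 °C. Each TEVp single-site mutant (parent TEVp 0) is paired with a single-site variant of the 7-mer TEVs (canonical ENLYFQ|S). The substrate sits between flexible linkers in a Bxb1-sfGFP-TEVs-SsrA fusion, so cleavage stabilises Bxb1 and speeds flipping of a recombination array, read by NGS. The value is the raw area under the fraction-flipped curve over 0-4 h after rhamnose induction (AUC4h), with ≥20 reads per time point. It is not background-subtracted; inactive controls average about 0.047.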
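Note: Bxb1 expression induced with 0.2% (w/v) L-rhamnose at OD600 near 0.5, cultures sampled hourly, flipped fraction per protease–substrate barcode pair counted by paired-end Illumina sequencing.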

Row | Variant | area with substrate EALYFQS | area with substrate ECLYFQS | area with substrate EDLYFQS | area with substrate EELYFQS | area with substrate EGLYFQS | area with substrate EILYFQS | area with substrate EKLYFQS | area with substrate EPLYFQS | area with substrate EQLYFQS | area with substrate ERLYFQS | area with substrate ETLYFQS | area with substrate ELLYFQS | area with substrate ESLYFQS | area with substrate EVLYFQS | area with substrate EWLYFQS | area with substrate EYLYFQS | area with substrate EHLYFQS | area with substrate EMLYFQS | area with substrate EFLYFQS
1 | MGESLFKGPRDYNPISSSICHLTNESDGHTTSLYGIGFGPFIITNKHLFRRNNGTLVVQSLHGVFKVKDTTTLQQHLVDGRDMIIIRMPKDFPPFPQKLKFREPQREERICLVTTNFQTKSMSPMVSDTSCTFPSGDGIFWKHWIQTKDGQCGSPLVSTRDGFIVGIHSASNFTNTNNYFTSVPKNFMELLTNQEAQQWVSGWRLNADSVLWGGHKVFMVKPEEPFQPVKEATQL [S124P] | 0.167 | 0.111 | 0.138 | 0.107 | 0.0838 | 0.103 | 0.0899 | 0.0959 | 0.113 | 0.114 | 0.0927 | – | – | – | – | – | – | – | –
2 | MGESLFKGPRDYNPISSSICHLTNESDGHTTSLYGIGFGPFIITNKHLFRRNNGTLVVQSLHGVFKVKDTTTLQQHLVDGRDMIIIRMPKDFPPFPQKLKFREPQREERICLVTTNFQTKSMSSMVSDTSCTFPSGDGIFWKHWIQTKDGQCGSPLVSTRDGFIVGIHSASNFTNTNNYFTSVPKNFMELLTNQEAQQWVSGWRLNADSVLWGGHKVFMVKPEEPFLPVKEATQL [Q227L] | 0.114 | 0.0994 | 0.124 | 0.115 | – | 0.0877 | 0.101 | 0.136 | 0.0698 | 0.106 | 0.0854 | 0.0903 | 0.104 | 0.102 | 0.079 | 0.13 | – | – | –
3 | MGESLFKGPRDYNPISSSICHLTNESDGHTTSLYGIGFGPFIITNKHLFRRNNGTLVVQSLHGVFKVKDTTTLQQHLVDGRDMIIIRMPKDFPPFPQKLKFREPQREERICLVTTNFQTKSMSSMVGDTSCTFPSGDGIFWKHWIQTKDGQCGSPLVSTRDGFIVGIHSASNFTNTNNYFTSVPKNFMELLTNQEAQQWVSGWRLNADSVLWGGHKVFMVKPEEPFQPVKEATQL [S127G] | 0.135 | 0.102 | 0.128 | 0.132 | 0.108 | 0.0749 | 0.132 | 0.13 | 0.126 | – | – | 0.0935 | 0.105 | 0.137 | 0.12 | – | 0.0063 | 0.138 | –
4 | MGESLFKGPRDYNPISSSICHLTNESDGHTTSLYGIGFGPFIITNKHLFRRNNGTLVVQSLHGVFKVKDTTTLQQHLVDGRDMIIIRMPKDFPPFPQKLKFREPQREERICLVTTNFQTKSMSSMVKDTSCTFPSGDGIFWKHWIQTKDGQCGSPLVSTRDGFIVGIHSASNFTNTNNYFTSVPKNFMELLTNQEAQQWVSGWRLNADSVLWGGHKVFMVKPEEPFQPVKEATQL [S127K] | 0.141 | 0.115 | 0.187 | 0.154 | – | 0.0953 | 0.134 | – | 0.164 | – | – | 0.0909 | 0.183 | 0.0939 | – | – | – | 0.133 | –
5 | MGESLFKGPRDYNPISSSICHLTNESDGHTTSLYGIGFGPFIITNKHLFRRNNGTLVVQSLHGVFKVKDTTTLQQHLYDGRDMIIIRMPKDFPPFPQKLKFREPQREERICLVTTNFQTKSMSSMVSDTSCTFPSGDGIFWKHWIQTKDGQCGSPLVSTRDGFIVGIHSASNFTNTNNYFTSVPKNFMELLTNQEAQQWVSGWRLNADSVLWGGHKVFMVKPEEPFQPVKEATQL [V78Y] | 0.0838 | 0.0703 | 0.088 | 0.0783 | 0.0613 | 0.0746 | – | – | – | 0.0701 | – | – | 0.0638 | – | 0.0603 | – | 0.0758 | – | –
6 | MGESLFKGPRDYNPISSSICHLTNESDGHTTSLYGIGFGPFIITNKHLFRRNNGTLVVQSLHGVFKVKDTTTLQQHLVDGRDMIIIRMPKDFPPFPQKLKFREPQREERICLVTTNFQTKSMSSMVSDTSCTFPSGDGIFWKHWIQTKDGQCGSPLVSTRDGFIRGIHSASNFTNTNNYFTSVPKNFMELLTNQEAQQWVSGWRLNADSVLWGGHKVFMVKPEEPFQPVKEATQL [V165R] | 0.0566 | 0.0487 | 0.0444 | 0.0668 | 0.0511 | 0.0139 | 0.049 | 0.0447 | 0.0479 | 0.0528 | 0.0223 | 0.0487 | 0.0475 | 0.0485 | – | 0.0326 | – | 0.0588 | –
7 | MGESLFKGPRDYNPISSSICHLNNESDGHTTSLYGIGFGPFIITNKHLFRRNNGTLVVQSLHGVFKVKDTTTLQQHLVDGRDMIIIRMPKDFPPFPQKLKFREPQREERICLVTTNFQTKSMSSMVSDTSCTFPSGDGIFWKHWIQTKDGQCGSPLVSTRDGFIVGIHSASNFTNTNNYFTSVPKNFMELLTNQEAQQWVSGWRLNADSVLWGGHKVFMVKPEEPFQPVKEATQL [T23N] | 0.0782 | 0.0759 | 0.114 | 0.117 | – | 0.0992 | 0.11 | 0.109 | 0.0967 | 0.0899 | 0.13 | 0.0294 | 0.089 | 0.09 | – | 0.0684 | 0.0963 | 0.0913 | 0.0796
8 | MGESLFKGPRDYNPISSSICHLTNESDGHTTSLYGIGFGPFIITNKHLFRRPNGTLVVQSLHGVFKVKDTTTLQQHLVDGRDMIIIRMPKDFPPFPQKLKFREPQREERICLVTTNFQTKSMSSMVSDTSCTFPSGDGIFWKHWIQTKDGQCGSPLVSTRDGFIVGIHSASNFTNTNNYFTSVPKNFMELLTNQEAQQWVSGWRLNADSVLWGGHKVFMVKPEEPFQPVKEATQL [N52P] | 0.0582 | 0.0651 | 0.105 | 0.0755 | 0.044 | 0.0618 | 0.0723 | 0.0669 | 0.076 | 0.0946 | – | – | 0.0847 | 0.0595 | – | 0.0643 | – | – | –
9 | MGESLFKGPRDYNPISSSICHLTNESDGHYTSLYGIGFGPFIITNKHLFRRNNGTLVVQSLHGVFKVKDTTTLQQHLVDGRDMIIIRMPKDFPPFPQKLKFREPQREERICLVTTNFQTKSMSSMVSDTSCTFPSGDGIFWKHWIQTKDGQCGSPLVSTRDGFIVGIHSASNFTNTNNYFTSVPKNFMELLTNQEAQQWVSGWRLNADSVLWGGHKVFMVKPEEPFQPVKEATQL [T30Y] | 0.1 | 0.115 | 0.129 | 0.118 | 0.0933 | 0.0926 | – | 0.123 | 0.099 | – | – | 0.0765 | 0.0896 | 0.1 | 0.103 | 0.0951 | 0.104 | 0.097 | –
